Assay results reported in PubChem BioAssay AID485294 (National Center for Advancing Translational Sciences (NCATS), 2010).
The campaign covered roughly 370,000 compounds. About 150 (0.041%) were called active. The shares of active, inactive and inconclusive entries below differ from those in the screen. Calls follow the shape of the dose curve; as a rule, active = well fitted inhibition curve with a large enough effect; inconclusive = small, poorly fitted or top-dose-only effect; inactive = flat fitted curve, though single readings scatter. No potency is given beside an inconclusive call; the fits are too rough.

Molecular target: Beta-lactamase (Escherichia coli (strain K12)) (UniProt P00811)
Assay: qHTS Inhibitors of AmpC Beta-Lactamase (assay with detergent); also: nearly all actives have a fitted effect of over 25% in size
Settings: AmpC hydrolysis of nitrocefin, absorbance 480 nm, 0.01% Triton; series mostly up to 114 µM
Summary of the method: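 AmpC (5.3 nM in the dispensed reagent) in 20 mM phosphate pH 7.0 with 0.01% (detergent screen) or 0.0001% Triton X-100 was preincubated with compounds for 15 min at room temperature. Nitrocefin was then added from an 800 uM solution, and hydrolysis was followed at 480 nm.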
Potency is read from the fitted curve at half-maximal effect; tags tell the direction and shape of the fitted curve.

Sequence of UniProt P00811 (P00811 whole entry, looked up): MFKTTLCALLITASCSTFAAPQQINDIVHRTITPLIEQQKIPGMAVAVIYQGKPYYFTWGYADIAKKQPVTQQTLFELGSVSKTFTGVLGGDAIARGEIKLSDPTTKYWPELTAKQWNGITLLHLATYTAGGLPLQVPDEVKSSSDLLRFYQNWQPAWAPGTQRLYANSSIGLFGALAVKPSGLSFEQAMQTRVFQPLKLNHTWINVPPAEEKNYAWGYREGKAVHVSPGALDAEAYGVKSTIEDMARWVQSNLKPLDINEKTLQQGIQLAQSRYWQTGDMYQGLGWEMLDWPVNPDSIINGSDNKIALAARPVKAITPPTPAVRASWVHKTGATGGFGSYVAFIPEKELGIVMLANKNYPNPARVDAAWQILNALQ

| SMILES | Potency |
| --- | --- |
| O=C(CNCC1CCCO1)Nc1ccccc1N1CCCCCC1 (stereo not given) | inconclusive [inhibitor, full curve] |
| CCC(=O)Nc1cc(C)c(NC(=O)CCc2ccccc2)cn1 | inconclusive [inhibitor, single point] |
| CSCCC(NC(=O)COc1ccccc1)C(=O)N1CCCC(C(F)(F)F)C1 (stereo not given) | inconclusive [inhibitor, full curve, poor fit] |
| CCN(CC)CCCNC(=O)c1ccc(N2CCCCC2)c(NS(=O)(=O)c2ccc(C)cc2)c1 | inactive |
| O=C(COC(=O)C12CC3CC(CC(C3)C1)C2)Nc1nccs1 | inactive |
| CCOC(=O)c1c(-c2ccccc2)oc2ccc(O)c(CN3CCOCC3)c12 | inconclusive [inhibitor, full curve, poor fit] |
| O=C(CN1C(=O)c2ccccc2S1(=O)=O)Nc1ccc(S(=O)(=O)Nc2ncccn2)cc1 | inconclusive [inhibitor, full curve] |
| Cc1ccc(C)c(S(=O)(=O)N2CCN(C(=O)c3cnccn3)CC2)c1 | inconclusive [inhibitor, single point] |
| CCOC(=O)c1nc2ccccc2nc1C | inconclusive [inhibitor, single point] |
| CC1=C(C)C(OCCBr)N(c2cc(O)c(Cl)cc2F)C1=O (stereo not given) | inactive |
| COc1ccc(CCNC(=O)CCc2c(C)nc3c4cccnc4nn3c2C)cc1OC | inactive |
| O=C(O)c1ccccc1N/N=C\c1ccnc2ccccc12 | inconclusive [inhibitor, partial curve, poor fit] |
| N=C1C(c2nc3ccccc3s2)=C(O)CN1CCCO | inactive |
| CCC(Sc1nnc2c(n1)[nH]c1ccccc12)C(=O)Nc1ccccc1OC (stereo not given) | inactive |
| CSc1snc(SCC(N)=O)c1C#N | inconclusive [inhibitor, partial curve] |
| CCc1ccccc1S(=O)(=O)Cc1ccc(C(=O)NCCc2ccc(C)cc2)o1 | inconclusive [inhibitor, single point] |
| COc1ccc(S(=O)(=O)N2CCCCCC2)cc1C(=O)OCc1cccc(OC)c1OC | inconclusive [inhibitor, full curve, poor fit] |
| O=C1CCCN2N=C(SCC(=O)Nc3cccc(Cl)c3)SC2=N1 | inactive |
| COc1cccc(N2CCN(C3=NS(=O)(=O)C(c4ccc(C)cc4)=C3C)CC2)c1 | inactive |
| CC(=O)Nc1ccc(S(=O)(=O)NC(C(=O)O)C(C)O)cc1 (stereo not given) | inconclusive [inhibitor, single point] |
| O=C(NNC(=O)c1cccs1)c1ccccc1 | inactive |
| Cc1nnsc1C(=O)Oc1ccc(Cl)cc1 | inactive |
| COc1ccccc1CNC(=O)Cn1cccc1C(=O)c1ccccc1C | inactive |

| SMILES | Potency |
| --- | --- |
| CCN(C(=O)c1ccc(S(=O)(=O)N2CCCCC2)cc1)C1CCS(=O)(=O)C1 (stereo not given) | inconclusive [inhibitor, partial curve, poor fit] |
| Cc1cc(C(F)F)nn1CC(=O)NCc1ccco1 | inconclusive [inhibitor, partial curve, poor fit] |
| CN(C)c1ccc(C(CNC(=O)c2ccccc2Cl)N2CCCC2)cc1 (stereo not given) | inactive |
| CCOc1ccc(NC(=O)N(Cc2cn(CC)c3ccccc23)C2CCCCCC2)cc1 | inactive |
| CCc1c(C)nc2c(-c3ccccc3OC)c(C)[nH]n2c1=O | inconclusive [inhibitor, single point] |
| CC12CCC(C(=O)Nc3ccccc3Br)(C/C1=N\O)C2(C)C (stereo not given) | inconclusive [inhibitor, partial curve] |
| O=C1CC(c2c[nH]c3ccccc23)C(=O)N1 (stereo not given) | inconclusive [inhibitor, partial curve] |
| CCCCCC(=O)N/N=C/c1ccco1 | inactive |
| CCC(CC)c1nnc(NC(=O)C2CC(=O)N(CCc3ccc(OC)c(OC)c3)C2)s1 (stereo not given) | inconclusive [inhibitor, partial curve, poor fit] |
| O=C(Cn1c(=O)oc2cc(S(=O)(=O)N3CCCC3)ccc21)N1CCN(c2ccccn2)CC1 | inconclusive [inhibitor, full curve] |
| CC1(C(=O)O)CCC(C(=O)NC2CCCCC2)C1(C)C (stereo not given) | inconclusive [inhibitor, single point] |
| Cc1[nH]n(-c2cccc3ccccc23)c(=O)c1/C=N/NC(=O)c1cccc([N+](=O)[O-])c1 | inactive |
| CN(C)S(=O)(=O)c1ccc(C(=O)Nc2ccc(Cl)cc2)cc1 | inconclusive [inhibitor, full curve, poor fit] |
| CC(C)CC(=O)N1CCN(Cc2ccc(Cl)cc2)CC1 | inconclusive [inhibitor, full curve, poor fit] |
| CC(C)(C)C1CCc2c(sc(NC(=O)c3ccco3)c2C(=O)Nc2ccccc2Cl)C1 (stereo not given) | inactive |
| c1cc(-c2nc3cc(Cc4ccc5oc(-c6ccncc6)nc5c4)ccc3o2)ccn1 | inconclusive [inhibitor, full curve, poor fit] |
| Cc1ccc(-c2ccc(=O)n(CC(=O)NCCN(C)C)n2)cc1 | inconclusive [inhibitor, full curve, poor fit] |
| COC(=O)c1ccc(CSc2nnc3ccccn23)o1 | inconclusive [inhibitor, full curve, poor fit] |
| CCOC(=O)c1c(C)[nH]c(C(=O)COC(=O)/C=C/c2ccc(OCC#N)c(OC)c2)c1C | inconclusive [inhibitor, full curve] |
| C#CCNC(=O)C1=C[C@@H](c2ccc3c(c2)OCO3)[C@H](CCCO)[C@@H](OCC)O1 | inactive |
| CC(C)N(C(=O)c1nn(C)c2c1CSc1ccccc1-2)C1CCCCC1 | inconclusive [inhibitor, partial curve, poor fit] |
| O=C(COC(=O)c1ccc(Cl)nc1)Nc1c(Cl)cccc1C(F)(F)F | inconclusive [inhibitor, partial curve, poor fit] |
